# The supplement of paper PMC12632987
# Whole data set: some 4,500 sequences, median “median log2 fold change of GCK-ALFA target abundance (FLAG IP / Myc IP barcode read proportion)” near 0.078, cut for the lowest 2% near -0.6. The list shows a part of the results.
# B1: GBRAP_39_5701 (protein)
# chain: EEEEENEEVFSYTEAVGAGYMYETGISLEEAVEEAKEIFTEEAEKHPELKELFDRLIEVLENGDEETKIAVIGLAVLIKKGTPLEEIRELAEKLLAYFES
# B2: GBRAP_83_6951 (protein)
# chain: KEKIVVAANDDNVEEAVKIAEDLAKTGKYEVTLEFIGDVESARKLIEEVEKALKKGVKFDVEILLEGATEEEAEEIRREFEKVAKEAGADVKVEVHVIKP
# B3: GBRAP_11_2695 (protein)
# chain: KKEKLKEAAELAEELAKLLEELLEKGVDNEELLKKIEEKIEKLLKLTKEYGDEGLKKLAEILKELYEKALKDPENKEKYLEEALAAARVLEGQYLLEIEE
# B4: GBRAP_11_2923 (protein)
# chain: KKEKLKKIAELAEELAKILEKLIKEGVDNEELLKEAEKKLKELKELVEKYADEASKKLAKIAEELFEEALKDKENRLEYLKKALATVRVLSGQFLLELEE
# B5: GBRAP_128_3225 (protein)
# chain: STEELKEEVRKLLEAIKKANKEEAKKLAKELARLVASSSVEEAEAMLEVIEELAPEMSEEDLDILIDAFVEEARKLDSEVSLILLDAAIVFGEELLEKEE
# B6: GBRAP_160_4390 (protein)
# chain: SAAYEALAKEVTDILDEAIKLIEGESAEQRKVIVDVALGQIRLAAFSNDAVSDEDEDKIDAILDKGRAAIDKAIEKGLDAVVAEINKLRDELLAAIKALA
# B7: GBRAP_35_5614 (protein)
# chain: ETTELAVESFVDMAEAIIELIPEEDDETIAALANALIKYARSLLKEEKNNKEALEKIKEALEKLLKALKKHRSDNPLMQEVAKKVEEAIKEAKEAIAKVK
# B8: GBRAP_125_3102 (protein)
# chain: EEEELLEALRRLALALGFSEEEAEEAARLAREFSLRQTLIALLLAEGEEELAELVEKLTEEQAKEVLRRLAEYLEAHPDATREEVVAKLRELVEEALAAA
# B9: GBRAP_160_4210 (protein)
# chain: SELIEKIIKDIKEATEEVIKLIPEESREEVANFAAVEFGSVLMEAVDDGLENDEILDTIADAADEIVKTLLENKDASPEEVAKKLKEITEKAIKEIKKIA
# B10: GBRAP_52_6323 (protein)
# chain: AEARVRAYAAALVAAIRAGDDAGARALADRIVAELTPEEILRLAELVARAIAGEDDAVHERAAEVFEYLAERVIEEKGDERTAAEILGIYARTLYAAEQA
# B11: GBRAP_160_4250 (protein)
# chain: EERIKKLEKEITDEANVLLEALAESPKSAWPAFARAMAGDIVQIVIDDPNASDETIEKVDKLADELAARLVAAKDASPAELKALLDEGVKKIIEAVKKEI
# B12: GBRAP_137_3640 (protein)
# chain: MKVTIRVERHEDLVEITITVDDPEKAEEVAELITDLAVAHGALAISVEIKEDGTLEAVIWVPVERAEALIAAIVDALQSKFGATVTVEDLDTGEVRTYTP
# B13: GBRAP_160_4398 (protein)
# chain: EEEYKKLKEEVNEIFDETLELIEGESPEQRKVILRVSFGEVLLAAEENPAISDEGEEEIAKILDKYLEKGLAAVDEGLEAVVKVVNEAREEVLKKIEELA
# B14: GBRAP_184_5166 (protein)
# chain: MIKEFEIKIENVEEAKEKIEEIKKEVEGLKAELYVIVETKELTVEIAKAILEGLKEMKEKGYVTSITVEFTGKIDEETLDVAVKLADEAGVKLVIAIDEE
# B15: GBRAP_128_3260 (protein)
# chain: MNEEVVAYAKEVVEKIKNSNAEEAQKIADEFMEWLLNSSLEDAEQAVDVVISRLDELTAEQLDILADAARKHRPLASPEKAELLADLEVEALNRALEKEE
# B16: GBRAP_64_6478 (protein)
# chain: DPEIEELLEELLEEARRLLEHFRRENPELAPRAEEIVKLLEEAKTASIEERLDLVVEVADRLVELLRDPRVSPEGRDLLAEALDLAMALASLLFEKEMEE
# B17: GBRAP_160_4651 (protein)
# chain: SEEVEKLKEEIREIIEEALEMMKGESHEERIAVARVMTGDILLLLDENPLVSDEAREEVDKIGDKVVETLEENPDLSDEEIEELLEEALKEIEKVLEKYT
# B18: GBRAP_80_6784 (protein)
# chain: MEEELEEALAKLEEINKKTAEIVKEIVDLLKEAGASLEIILEIVKDFLDGKDLDEETLEKIAKETLEFAKELLAESEHLSIDDIGKLVLAEAATLIEEAE
# B19: GBRAP_184_5124 (protein)
# chain: TLVRASVEADDAEELIAAARAVVEAAAAAGARLDLHVFAKNLSVEEVIEVIRALGELRAAHPDVRVTLDVLDERNEEELDKLVKAADEAGVRLVVALKEE
# Target: GABARAP, O95166
# Sequence (O95166 whole entry, the tested form may be a part): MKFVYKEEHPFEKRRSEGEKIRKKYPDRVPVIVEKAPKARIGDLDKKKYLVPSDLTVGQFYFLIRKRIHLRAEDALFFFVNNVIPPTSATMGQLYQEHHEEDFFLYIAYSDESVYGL
# Assay: median log2 fold change of GCK-ALFA target abundance (FLAG IP / Myc IP barcode read proportion) (log2 ratio); each designed protein is fused to an ALFA-tag nanobody in HEK293 cells to bring the named protein to FLAG-tagged glucokinase (GCK); Myc marks an untargeted standard; higher = target protein stabilised (more abundant)
# Settings: target protein: 3xFLAG-MCP-GCK-ALFA reporter; HEK293 landing pad (RPLP)
# Procedure: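 LABEL-seq trans screen in HEK293 landing-pad cells. Each de novo designed 100-aa effector handle, binding the indicated effector (E3 ligase, DUB or autophagy protein), is fused to a constant NbALFA target handle and induced with 2 ug/mL doxycycline. A FLAG-MCP-GCK-ALFA target and a Myc-MCP standard reporter were transfected, and after 48 h circRNA barcodes were recovered by anti-FLAG and anti-Myc IP and sequenced. The value is the median across barcodes (at least 3 per design) of log2(FLAG/Myc read-proportion ratio), with the two transfection replicates pooled. Negative values mean degradation and positive values mean stabilisation of the target.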
row,Binder,median log2 fold change
1,B1,0.236
2,B2,0.235
3,B3,0.0661
4,B4,0.16
5,B5,-0.0542
6,B6,0.171
7,B7,0.0138
8,B8,-0.364
9,B9,-0.314
10,B10,0.156
11,B11,-0.183
12,B12,-0.0441
13,B13,0.0233
14,B14,0.0333
15,B15,0.278
16,B16,-0.525
17,B17,-0.0566
18,B18,0.182
19,B19,-0.0596
